{"source": "the supplement of paper PMC8728848", "experiment_in_all_cases": "glycan array binding signal (z-score within array); higher = stronger binding", "details_in_all_cases": "glycan notation: IUPAC condensed, linker removed", "key": {"Gal(a1-4)GlcNAc": {"molecular_target": "Gal(a1-4)GlcNAc", "in_short": "(§1)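 The binding signal is a Z-score computed within each array. Data were drawn from 3228 arrays in the Consortium for Functional Glycomics database, restricted to those with a known protein sequence. Scores were averaged over arrays of the same protein sequence at different concentrations or buffers, and over linkers, and negative values can be taken as non-binding.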"}, "Gal(a1-6)Glc": {"molecular_target": "Gal(a1-6)Glc", "in_short": "as §1"}, "Gal(b1-2)Gal": {"molecular_target": "Gal(b1-2)Gal", "in_short": "as §1"}, "Gal(b1-3)Gal": {"molecular_target": "Gal(b1-3)Gal", "in_short": "as §1"}, "Gal(b1-3)GalNAc": {"molecular_target": "Gal(b1-3)GalNAc", "in_short": "as §1"}, "[1]": {"molecular_target": "Gal(b1-3)GalNAc(b1-3)Gal(a1-4)Gal(b1-4)Glc", "in_short": "as §1"}, "[2]": {"molecular_target": "Gal(b1-3)GalNAc(b1-3)Gal(b1-4)Glc", "in_short": "as §1"}, "[3]": {"molecular_target": "Gal(b1-3)GalNAc(b1-3)Gal(b1-4)GlcNAc", "in_short": "as §1"}, "[4]": {"molecular_target": "Gal(b1-3)GalNAc(b1-4)Gal(b1-4)Glc", "in_short": "as §1"}, "[5]": {"molecular_target": "Gal(b1-3)GalNAc(b1-4)[Neu5Ac(a2-3)]Gal(b1-4)Glc", "in_short": "as §1"}, "[6]": {"molecular_target": "Gal(b1-3)[Fuc(a1-4)]GlcNAc", "in_short": "as §1"}, "[7]": {"molecular_target": "Gal(b1-3)[Fuc(a1-4)]GlcNAc(b1-3)Gal(b1-4)GlcNAc", "in_short": "as §1"}, "[8]": {"molecular_target": "Gal(b1-3)[Fuc(a1-4)]GlcNAc(b1-3)Gal(b1-4)[Fuc(a1-3)]GlcNAc", "in_short": "as §1"}, "[9]": {"molecular_target": "Gal(b1-3)[GlcNAc(b1-6)]GalNAc", "in_short": "as §1"}, "[10]": {"molecular_target": "Gal(b1-3)[GlcNAc(b1-6)]GlcNAc", "in_short": "as §1"}, "[11]": {"molecular_target": "Gal(b1-3)[Neu5Ac(a2-6)]GalNAc", "in_short": "as §1"}, "[12]": {"molecular_target": "Gal(b1-3)[Neu5Ac(a2-6)]GlcNAc", "in_short": "as §1"}, "[13]": {"molecular_target": "Gal(b1-3)[Neu5Ac(a2-6)]GlcNAc(a1-4)Gal(b1-4)Glc", "in_short": "as §1"}, "[14]": {"molecular_target": "Gal(b1-3)[Neu5Ac(b2-6)]GlcNAc", "in_short": "as §1"}, "[15]": {"molecular_target": "Gal(b1-4)GalNAc(a1-3)[Fuc(a1-2)]Gal(b1-4)GlcNAc", "in_short": "as §1"}, "[16]": {"molecular_target": "Gal(b1-4)GalNAc(b1-3)[Fuc(a1-2)]Gal(b1-4)GlcNAc", "in_short": "as §1"}, "Gal(b1-4)Glc": {"molecular_target": "Gal(b1-4)Glc", "in_short": "as §1"}, "Gal(b1-4)Glc6S": {"molecular_target": "Gal(b1-4)Glc6S", "in_short": "as §1"}, "Gal(b1-4)GlcNAc": {"molecular_target": "Gal(b1-4)GlcNAc", "in_short": "as §1"}, "[17]": {"molecular_target": "Gal(b1-4)GlcNAc(b1-2)Man(a1-3)[Gal(b1-4)GlcNAc(b1-2)Man(a1-6)]Man(b1-4)GlcNAc(b1-4)GlcNAc", "in_short": "as §1"}, "[18]": {"molecular_target": "Gal(b1-4)GlcNAc(b1-3)Gal(b1-4)Glc", "in_short": "as §1"}, "[19]": {"molecular_target": "Gal(b1-4)GlcNAc(b1-3)Gal(b1-4)GlcNAc", "in_short": "as §1"}, "[20]": {"molecular_target": "Gal(b1-4)GlcNAc(b1-3)Gal(b1-4)GlcNAc(b1-3)Gal(b1-4)GlcNAc", "in_short": "as §1"}, "[21]": {"molecular_target": "Gal(b1-4)GlcNAc(b1-3)Gal(b1-4)[Fuc(a1-3)]GlcNAc(b1-3)Gal(b1-4)[Fuc(a1-3)]GlcNAc", "in_short": "as §1"}, "[22]": {"molecular_target": "Gal(b1-4)GlcNAc(b1-3)GalNAc", "in_short": "as §1"}, "[23]": {"molecular_target": "Gal(b1-4)GlcNAc(b1-3)[Gal(b1-4)GlcNAc(b1-6)]GalNAc", "in_short": "as §1"}, "[24]": {"molecular_target": "Gal(b1-4)GlcNAc(b1-6)GalNAc", "in_short": "as §1"}, "[25]": {"molecular_target": "Gal(b1-4)GlcNAc(b1-6)[Gal(b1-3)]GalNAc", "in_short": "as §1"}, "[26]": {"molecular_target": "Gal(b1-4)GlcNAc(b1-6)[Gal(b1-3)]GlcNAc", "in_short": "as §1"}, "Gal3S(b1-3)GalNAc": {"molecular_target": "Gal3S(b1-3)GalNAc", "in_short": "as §1"}, "Gal3S(b1-3)GlcNAc": {"molecular_target": "Gal3S(b1-3)GlcNAc", "in_short": "as §1"}, "[27]": {"molecular_target": "Gal3S(b1-3)[Fuc(a1-4)]GlcNAc", "in_short": "as §1"}, "Gal3S(b1-4)Glc": {"molecular_target": "Gal3S(b1-4)Glc", "in_short": "as §1"}, "Gal3S(b1-4)Glc6S": {"molecular_target": "Gal3S(b1-4)Glc6S", "in_short": "as §1"}, "Gal3S(b1-4)GlcNAc": {"molecular_target": "Gal3S(b1-4)GlcNAc", "in_short": "as §1"}, "Gal3S(b1-4)GlcNAc6S": {"molecular_target": "Gal3S(b1-4)GlcNAc6S", "in_short": "as §1"}, "Gal3S6S(b1-4)GlcNAc": {"molecular_target": "Gal3S6S(b1-4)GlcNAc", "in_short": "as §1"}, "Gal3S6S(b1-4)GlcNAc6S": {"molecular_target": "Gal3S6S(b1-4)GlcNAc6S", "in_short": "as §1"}, "Gal4S(b1-4)GlcNAc": {"molecular_target": "Gal4S(b1-4)GlcNAc", "in_short": "as §1"}, "Gal4S6S(b1-4)GlcNAc": {"molecular_target": "Gal4S6S(b1-4)GlcNAc", "in_short": "as §1"}}, "note": "This is one part of the list.", "data": [{"binder": "Onconase (Rana pipiens), P22069 (protein) QDWLTFQKKHITNTRDVDCDNIMSTNLFHCKDKNTFIYSRPEPVKAICKGIIASKNVLTTSEFYLSDCNVTSRPCKYKLKKSTNKFCVTCENQAPVHFVGVGSC", "values": [{"measurement": "glycan array binding signal (z-score)", "setting": "Gal(a1-4)GlcNAc", "result": -0.82}, {"measurement": "glycan array binding signal (z-score)", "setting": "Gal(a1-6)Glc", "result": -0.497}, {"measurement": "glycan array binding signal (z-score)", "setting": "Gal(b1-2)Gal", "result": 2.63}, {"measurement": "glycan array binding signal (z-score)", "setting": "Gal(b1-3)Gal", "result": 1.65}, {"measurement": "glycan array binding signal (z-score)", "setting": "Gal(b1-3)GalNAc", "result": -0.083}, {"measurement": "glycan array binding signal (z-score)", "setting": "[1]", "result": -0.205}, {"measurement": "glycan array binding signal (z-score)", "setting": "[2]", "result": 0.278}, {"measurement": "glycan array binding signal (z-score)", "setting": "[3]", "result": 0.641}, {"measurement": "glycan array binding signal (z-score)", "setting": "[4]", "result": -0.145}, {"measurement": "glycan array binding signal (z-score)", "setting": "[5]", "result": 0.759}, {"measurement": "glycan array binding signal (z-score)", "setting": "[6]", "result": -0.553}, {"measurement": "glycan array binding signal (z-score)", "setting": "[7]", "result": 0.52}, {"measurement": "glycan array binding signal (z-score)", "setting": "[8]", "result": 0.498}, {"measurement": "glycan array binding signal (z-score)", "setting": "[9]", "result": -1.22}, {"measurement": "glycan array binding signal (z-score)", "setting": "[10]", "result": -0.723}, {"measurement": "glycan array binding signal (z-score)", "setting": "[11]", "result": -2.03}, {"measurement": "glycan array binding signal (z-score)", "setting": "[12]", "result": 0.353}, {"measurement": "glycan array binding signal (z-score)", "setting": "[13]", "result": 0.649}, {"measurement": "glycan array binding signal (z-score)", "setting": "[14]", "result": -0.65}, {"measurement": "glycan array binding signal (z-score)", "setting": "[15]", "result": 0.045}, {"measurement": "glycan array binding signal (z-score)", "setting": "[16]", "result": -0.254}, {"measurement": "glycan array binding signal (z-score)", "setting": "Gal(b1-4)Glc", "result": -0.134}, {"measurement": "glycan array binding signal (z-score)", "setting": "Gal(b1-4)Glc6S", "result": 0.125}, {"measurement": "glycan array binding signal (z-score)", "setting": "Gal(b1-4)GlcNAc", "result": -0.451}, {"measurement": "glycan array binding signal (z-score)", "setting": "[17]", "result": 1.78}, {"measurement": "glycan array binding signal (z-score)", "setting": "[18]", "result": 0.071}, {"measurement": "glycan array binding signal (z-score)", "setting": "[19]", "result": -0.453}, {"measurement": "glycan array binding signal (z-score)", "setting": "[20]", "result": -0.608}, {"measurement": "glycan array binding signal (z-score)", "setting": "[21]", "result": 2.54}, {"measurement": "glycan array binding signal (z-score)", "setting": "[22]", "result": 0.904}, {"measurement": "glycan array binding signal (z-score)", "setting": "[23]", "result": -0.818}, {"measurement": "glycan array binding signal (z-score)", "setting": "[24]", "result": -0.359}, {"measurement": "glycan array binding signal (z-score)", "setting": "[25]", "result": -2.24}, {"measurement": "glycan array binding signal (z-score)", "setting": "[26]", "result": -0.723}, {"measurement": "glycan array binding signal (z-score)", "setting": "Gal3S(b1-3)GalNAc", "result": 1.43}, {"measurement": "glycan array binding signal (z-score)", "setting": "Gal3S(b1-3)GlcNAc", "result": 1.01}, {"measurement": "glycan array binding signal (z-score)", "setting": "[27]", "result": 0.272}, {"measurement": "glycan array binding signal (z-score)", "setting": "Gal3S(b1-4)Glc", "result": -0.458}, {"measurement": "glycan array binding signal (z-score)", "setting": "Gal3S(b1-4)Glc6S", "result": -0.281}, {"measurement": "glycan array binding signal (z-score)", "setting": "Gal3S(b1-4)GlcNAc", "result": -0.393}, {"measurement": "glycan array binding signal (z-score)", "setting": "Gal3S(b1-4)GlcNAc6S", "result": 0.743}, {"measurement": "glycan array binding signal (z-score)", "setting": "Gal3S6S(b1-4)GlcNAc", "result": 0.119}, {"measurement": "glycan array binding signal (z-score)", "setting": "Gal3S6S(b1-4)GlcNAc6S", "result": 0.447}, {"measurement": "glycan array binding signal (z-score)", "setting": "Gal4S(b1-4)GlcNAc", "result": -0.516}, {"measurement": "glycan array binding signal (z-score)", "setting": "Gal4S6S(b1-4)GlcNAc", "result": 1.1}]}]}
